About 6,400 (1.6%) of roughly 410,000 compounds were called active. The inconclusive results got no clear call from the source; some entries with a clear call stand among them for comparison. Calls follow the shape of the dose curve; as a rule, active = well fitted inhibition curve with a large enough effect; inconclusive = small, poorly fitted or top-dose-only effect; inactive = no such curve, though single readings can be large or run the other way. Where the call is inconclusive, the potency comes from a doubtful curve fit.
These compounds were tested against Glucagon-like peptide 1 receptor (Homo sapiens) (UniProt P43220) (assay: qHTS of GLP-1 Receptor Inverse Agonists (Inhibition Mode)). Details: HEK293 GLP-1R CRE-luciferase, luminescence, 24 h, GLP-1R form is constitutively active; activity change, negative = inhibition: at 38.3 µM (top of the series) unless noted.
How it was run: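 GLP-1R inverse agonism mode: basal reporter luminescence in engineered HEK293 cells measured after one day of compound exposure at 37 deg C, with a 12 min room-temperature detection step.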
% is scaled to controls: 0 for no effect and ±100 for the full control effect; potency is read from the fitted curve at half-maximal effect; tags tell the direction and shape of the fitted curve.
Also: nearly all actives have a fitted effect of over 55% in size.

Chain of UniProt P43220 (P43220 whole entry, looked up): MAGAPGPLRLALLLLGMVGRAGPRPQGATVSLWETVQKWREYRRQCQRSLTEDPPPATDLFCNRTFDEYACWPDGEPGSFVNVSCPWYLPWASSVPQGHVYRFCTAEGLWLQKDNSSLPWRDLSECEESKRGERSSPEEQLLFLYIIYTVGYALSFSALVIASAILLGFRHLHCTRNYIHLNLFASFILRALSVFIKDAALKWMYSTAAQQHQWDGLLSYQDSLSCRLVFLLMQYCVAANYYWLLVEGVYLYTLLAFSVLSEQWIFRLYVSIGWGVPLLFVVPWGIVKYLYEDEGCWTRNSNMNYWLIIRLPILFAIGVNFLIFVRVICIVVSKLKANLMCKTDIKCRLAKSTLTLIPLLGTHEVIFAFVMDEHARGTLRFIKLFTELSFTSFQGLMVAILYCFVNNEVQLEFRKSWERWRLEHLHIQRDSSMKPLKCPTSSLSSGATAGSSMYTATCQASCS

Activity change, negative = inhibition, inactive:
O=C1N/C(=C/c2ccc(N3CCCC3)cc2)C(=O)N1c1ccccc1 13.3%, COc1ccc(CNC(=O)Cn2c(=O)n3nc(-c4cccc(F)c4)nc3c3ccccc32)cc1OC 9.52%, O=C(COC(=O)/C=C/c1cccs1)NC(c1ccccc1)c1ccccc1 9.83%, COc1cccc(C2C(C#N)=C(N)N(N(C)C)C3=C2C(=O)CC(C)(C)C3)c1 (centres undefined) 30.6%, CCOc1cc(N2CCOCC2)c(OCC)cc1NC(=O)c1cc(S(=O)(=O)N2CCOCC2)ccc1C 16.9%, O=C(c1ccc2c(c1)N(Cc1cccc(Cl)c1)C(=O)c1ccccc1S2(=O)=O)N1CCN(Cc2ccccc2)CC1 -13.3%, O=C(NCC(c1ccc2c(c1)OCO2)N1CCOCC1)C(=O)Nc1ccc(Cl)cc1 (centres undefined) 5.48%, C[C@@H]1CN([C@H](C)CO)S(=O)(=O)c2ccc(Br)cc2O[C@@H]1CN(C)Cc1ccc(C(=O)O)cc1 3.38%, COc1ccc(OCC#CCNC(C)(C)C)cc1 -16%, Cc1ccc(CNc2ccc(-c3nc(-c4ccco4)no3)cc2[N+](=O)[O-])cc1 5.75%, COc1c(C)oc2cc(O)ccc2c1=O 15.8%, COc1ccc(NC(=O)CNC(=O)c2ccco2)cc1 10%, Cc1ccc(-c2cc(C(=O)O)n(Cc3ccccc3)n2)cc1 6.31%, Cc1ccc(S(=O)(=O)c2nc(-c3ccccc3)oc2N2CCN(c3ccccc3)CC2)cc1 6.05%, CNC(=O)N1CCN(C(=O)NC)CC1 18.3%, C=C(Cl)COc1cc(C)cc2oc(=O)cc(CC)c12 5.77%, COc1ccc2c(c1)c(=O)c(S(=O)(=O)c1ccc(C)c(C)c1)cn2CC(=O)Nc1ccccc1 -16.5%, COc1ccc(-c2cc(C(=O)Nc3c(Cl)cccc3Cl)no2)cc1OC 22.9%, CCCN(CC(=O)Nc1ccccc1OC)C(=O)c1cccc(S(=O)(=O)Nc2ccc(OC)cc2)c1 -15.1%

Potency, inconclusive:
COCCOC(=O)c1[nH]c2c(c1C)C(=O)CC(c1ccccc1)C2 (centres undefined) 0.355 µM [inhibitor, full curve, poor fit], CCCCOc1ccc(NC(=O)CN2CCN(Cc3ccccc3)CC2)cc1 3.98 µM [inhibitor, partial curve, poor fit], Nc1ccc(C(=O)N/N=C2\CCCc3c2[nH]c2ccccc32)cc1 28.2 µM [inhibitor, single point], CCc1ccc(S(=O)(=O)Nc2c(NC3CCCCC3)c3ccccc3oc2=O)cc1 28.2 µM [inhibitor, single point], Cc1cc(C)c(C#N)c(N2CCN(CCOc3ccc(Cl)cc3)CC2)n1 20 µM [inhibitor, single point], COc1ccc(-c2cc(C(=O)Nc3ccc(C)c(N)c3)c3ccccc3n2)cc1 12.6 µM [inhibitor, partial curve, poor fit], Cc1ccc(NS(=O)(=O)c2ccc(-c3cc(C)no3)cc2)c(C)c1 12.6 µM [inhibitor, partial curve], CCNC(=O)NC1c2ccccc2CSc2ccccc21 (centres undefined) 8.91 µM [inhibitor, partial curve, poor fit], Nc1ccc2c(c1)C(=O)c1ccc(Br)cc1-2 14.1 µM [inhibitor, partial curve, poor fit], CC1CCCC(C)N1C(=O)c1cc(-c2ccc3c(c2)OCO3)on1 (centres undefined) 6.31 µM [inhibitor, partial curve, poor fit], CCC1CCCCN1CCCNC(=O)c1sc2nc(C)cc(C)c2c1-n1cccc1 (centres undefined) 11.2 µM [inhibitor, partial curve, poor fit], N#C/C(=C/Nc1ccccc1)c1ccsc1 15.8 µM [inhibitor, partial curve, poor fit], Clc1cc(Br)ccc1OCCCNCc1ccccc1 8.91 µM [inhibitor, partial curve, poor fit], CN1CC(=O)N(CC(=O)Nc2ccc(OCc3ccccc3)cc2)C1=O 11.2 µM [inhibitor, single point], CC(C)n1cc(CN2CCC(C(=O)Nc3cccc(-c4cscn4)c3)CC2)cn1 11.2 µM [inhibitor, partial curve, poor fit], Oc1cccc(-c2nc(-c3cccs3)c(-c3cccs3)[nH]2)c1 10 µM [inhibitor, partial curve, poor fit], N/C(=N\OC(=O)c1ccc(Cl)cc1)c1[nH]ncc1Br 11.2 µM [inhibitor, single point], CC1=C/C(=C(\c2cc(C)c(O)c(Br)c2)c2ccccc2S(=O)(=O)O)C=C(Br)C1=O 10 µM [inhibitor, single point], COc1cccc(C2c3cc4c(cc3OC(N3CCOCC3)C2C)OCO4)c1O (centres undefined) 8.91 µM [inhibitor, partial curve, poor fit], O=C(Cc1ccccc1)N1CCCC(c2nc(-c3ccc(S(=O)(=O)N4CCCC4)cc3)no2)C1 (centres undefined) 28.2 µM [inhibitor, single point], Cc1ccc(S(=O)(=O)N2CCC(C(=O)Nc3ccccc3N3CCCC3)CC2)cc1C 28.2 µM [inhibitor, single point], CCc1ccc(NC(=O)c2cc3c(=O)n(Cc4cccs4)ccc3nc2C)cc1 12.6 µM [inhibitor, partial curve, poor fit], COc1ccc(Cl)cc1NC(=O)CN(c1cc(C)cc(C)c1)S(=O)(=O)c1c(C)n[nH]c1C 28.2 µM [inhibitor, single point], CC(C)(C)c1ccc(CC(=O)N2CCC2(C)C(=O)NS(=O)(=O)c2ccccc2C(F)(F)F)cc1 (centres undefined) 22.4 µM [inhibitor, single point], Cc1ccsc1C(=O)OCC(=O)NCCC1=CCCCC1 12.6 µM [inhibitor, partial curve, poor fit], COc1cccc(CN(C)C(=O)c2ccc(Oc3ccccc3)cc2)c1OC 11.2 µM [inhibitor, partial curve, poor fit], Fc1ccc(Nc2nnc(C(F)(F)F)s2)cc1Cl 22.4 µM [inhibitor, single point], C[C@@H](NC(=O)c1[nH]cnc1C(=O)Nc1ccccc1)c1ccccc1 28.2 µM [inhibitor, single point], COC(=O)[C@@]1(Cc2ccc(OC)cc2)[C@@H]2C(=CC(=O)[C@H]2CC(=O)C(=O)N(C)C)CN1C(=O)c1ccccc1 28.2 µM [inhibitor, single point], Cc1ccc(S(=O)(=O)N2CCN(Cc3cc4c(cc3Br)OCCO4)CC2)cc1 14.1 µM [inhibitor, partial curve, poor fit], Cc1cccc(N2CCN(C(=O)c3ccccc3OCc3c(C)noc3C)CC2)c1C 12.6 µM [inhibitor, single point], Cc1ccc(S(=O)(=O)c2nc(NCCCn3ccnc3)sc2Cl)cc1 3.55 µM [inhibitor, partial curve, poor fit], CC1(C(=O)NCc2ccc3c(c2)OCO3)CCN1Cc1csc2ccccc12 (centres undefined) 20 µM [inhibitor, single point], CC(C)Oc1ccc(CN2CCC2(C)C(=O)NCc2ccc(C(F)(F)F)cc2)cc1 (centres undefined) 10 µM [inhibitor, single point], CCOc1ccc(N(CC(=O)Nc2ccccc2C)S(=O)(=O)c2c(C)noc2C)cc1 1.78 µM [inhibitor, partial curve, poor fit], CCC(C)NC(=O)c1cc(Cl)c(NC(=O)C2=C(C)OCCS2)cc1OC (centres undefined) 20 µM [inhibitor, partial curve, poor fit], COc1ccc(-c2c(-c3cc(OC)cc(OC)c3)n(C)c3ccc(-c4cccc5[nH]ccc45)cc23)cc1 3.98 µM [inhibitor, partial curve, poor fit], CCCC(=O)Nc1ccc(C#Cc2ccccc2)cc1 0.501 µM [inhibitor, full curve, poor fit], Cc1cc(C)cc(NC(=S)NC2CC3CCCC(C2)N3C2CC2)c1 (centres undefined) 8.91 µM [inhibitor, partial curve, poor fit], COc1cc([N+](=O)[O-])ccc1NC(=O)NNC(=O)CCc1ccccc1 28.2 µM [inhibitor, single point], CC(C)Cc1cc(C(=O)N2CCCC(C(=O)c3cc(F)ccc3F)C2)n(C)n1 (centres undefined) 11.2 µM [inhibitor, single point], CCCNC(=O)c1cccc(COc2ccccc2OC)c1 8.91 µM [inhibitor, partial curve], COc1ccccc1OCCC(=O)Nc1cccc(S(=O)(=O)N2CCCCC2)c1 28.2 µM [inhibitor, single point], Cc1ccccc1Cn1cc(NC(=O)c2cc3nc(-c4ccco4)cc(C(F)(F)F)n3n2)cn1 28.2 µM [inhibitor, single point], CCOC(=O)c1cc(-c2ccc(C)cc2)nn1Cc1ccccc1 10 µM [inhibitor, partial curve]
